Source: paper PMC4336329 (PLoS ONE, 2015)
About 2,200 (0.71%) of roughly 310,000 compounds showed an effect of 50% or more. The effect is printed as a negative number. This is one part of the list.

Each compound was assayed against human ether-à-go-go-related gene (hERG) potassium channel (human, UniProt Q12809) (assay: primary screen, population patch clamp on CHO cells stably expressing hERG).
Sequence of human ether-à-go-go-related gene (hERG) potassium channel (Q12809 whole entry, looked up): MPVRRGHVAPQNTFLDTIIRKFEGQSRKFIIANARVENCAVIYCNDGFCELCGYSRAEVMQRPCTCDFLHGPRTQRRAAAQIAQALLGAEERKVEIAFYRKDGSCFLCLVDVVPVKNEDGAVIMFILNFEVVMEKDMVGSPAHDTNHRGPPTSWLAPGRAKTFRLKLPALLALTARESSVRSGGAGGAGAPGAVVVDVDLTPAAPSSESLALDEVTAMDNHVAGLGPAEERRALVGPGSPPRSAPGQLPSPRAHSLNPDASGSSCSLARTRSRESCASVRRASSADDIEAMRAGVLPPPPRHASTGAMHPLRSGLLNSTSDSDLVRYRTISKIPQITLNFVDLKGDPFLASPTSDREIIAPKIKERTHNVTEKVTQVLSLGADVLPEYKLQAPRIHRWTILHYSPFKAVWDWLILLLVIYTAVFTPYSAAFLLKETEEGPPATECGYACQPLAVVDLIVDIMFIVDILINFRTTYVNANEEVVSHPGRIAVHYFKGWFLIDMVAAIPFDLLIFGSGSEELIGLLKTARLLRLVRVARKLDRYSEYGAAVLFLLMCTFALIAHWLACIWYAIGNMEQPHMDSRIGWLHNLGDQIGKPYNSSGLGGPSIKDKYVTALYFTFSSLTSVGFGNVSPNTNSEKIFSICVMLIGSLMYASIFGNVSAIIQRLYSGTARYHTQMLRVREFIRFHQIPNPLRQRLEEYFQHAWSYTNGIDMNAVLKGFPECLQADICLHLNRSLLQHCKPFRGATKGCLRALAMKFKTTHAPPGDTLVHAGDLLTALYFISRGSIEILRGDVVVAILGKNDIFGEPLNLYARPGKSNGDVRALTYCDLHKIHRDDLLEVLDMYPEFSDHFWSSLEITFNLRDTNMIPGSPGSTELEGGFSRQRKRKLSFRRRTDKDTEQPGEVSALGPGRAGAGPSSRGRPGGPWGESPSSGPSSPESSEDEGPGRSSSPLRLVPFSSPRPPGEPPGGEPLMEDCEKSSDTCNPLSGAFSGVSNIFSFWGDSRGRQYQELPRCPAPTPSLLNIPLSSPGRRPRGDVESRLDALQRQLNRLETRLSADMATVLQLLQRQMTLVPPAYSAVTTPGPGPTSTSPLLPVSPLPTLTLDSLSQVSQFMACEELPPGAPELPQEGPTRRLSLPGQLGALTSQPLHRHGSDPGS

First: CC(C)CNc1ncnc2c1sc1nc(N3CCOCC3)c3c(c12)CC(C)(C)OC3
Second: Cc1ccc(SCC(=O)Nc2ccc(N3CCOCC3)cc2)c(C)c1
The “hERG current change (%, negative = inhibition) at 1uM” value of the first is higher: 9.68% for the first, 2.93% for the second.

First: CCN(c1ccccc1)S(=O)(=O)c1ccc(OC)c(NC(=O)CNC)c1.O=C(O)C(=O)O
Second: CCOC(=O)c1ccc[n+](CC(=O)Nc2ccccc2OC(F)F)c1.[Cl-]
The “hERG current change (%, negative = inhibition) at 1uM” value of the first is higher: 14.6% for the first, 6.39% for the second.

Going from `COc1cc(NC(=O)c2ccccn2)cc(OC)c1OC` to `COc1cc(CCNc2ccc3nnc(-c4ccccc4)n3n2)cc(OC)c1OC`, the “hERG current change (%, negative = inhibition) at 1uM” value rises from 7.6% to 8.03%.

Going from `O=C(COC(=O)c1ccc[nH]c1=O)NC1CCCCC1` to `O=C(COC(=O)/C=C/c1cccc(Br)c1)NC1CCCCCC1`, the “hERG current change (%, negative = inhibition) at 1uM” value falls from 9.19% to 7.48%.

Compared with `Cc1ccc(-c2ocnc2C(=O)N2CCN(C(=O)c3cccs3)CC2)cc1`, `C=CCN(c1ccc(C(=O)N2CCN(c3ccc(F)cc3)CC2)cc1)S(C)(=O)=O` is lower in “hERG current change (%, negative = inhibition) at 1uM” value: 7.87% for the first, -10.7% for the second.

Going from `c1ccc(-c2ncc(CSc3nncn3-c3ccccc3)s2)cc1` to `c1ccc(-c2cc(-c3ccccc3)n3ncnc3n2)cc1`, the “hERG current change (%, negative = inhibition) at 1uM” value rises from 3.87% to 7.3%.

Compared with `CCOc1ccc(CC(=O)N/N=C/c2cccnc2)cc1`, `COc1ccc(CC(=O)Nc2ccc3c(c2)CCC3)cc1` is higher in “hERG current change (%, negative = inhibition) at 1uM” value: 12.3% for the first, 12.5% for the second.

First: CCN(CCCNC(=O)c1nn(C)c2c1CS(=O)(=O)c1ccccc1-2)Cc1ccccc1
Second: O=C1CCN(C(=O)/C=C/c2ccccc2)c2ccccc21
The “hERG current change (%, negative = inhibition) at 1uM” value of the first is lower: -3.66% for the first, 7.67% for the second.

First: COc1ccc(/C=C2\SC(=N)N(c3ccc(F)cc3)C2=O)cc1
Second: Cc1ccc(/C=C2\SC(=S)N(CCC(=O)NNC(=O)c3ccncc3)C2=O)cc1
The “hERG current change (%, negative = inhibition) at 1uM” value of the first is lower: -0.313% for the first, 10.8% for the second.

Compared with `CCOc1cc2[nH]c(=O)n(CC3CCC(C(=O)NCCCOC)CC3)c(=O)c2cc1OCC` (stereo not drawn), `CCCCn1c(N)c(N(CCOC)C(=O)c2ccc3c(c2)OCCO3)c(=O)[nH]c1=O` is lower in “hERG current change (%, negative = inhibition) at 1uM” value: 14.1% for the first, 5.48% for the second.

Compared with `Cc1ccc(CN2CC(C(=O)Nc3ccc4c(C)cc(=O)oc4c3)CC2=O)cc1` (stereo not drawn), `Cc1cc(C)c2c3c(sc2n1)C(=O)N(Cc1ccccc1)CC(=O)N3` is lower in “hERG current change (%, negative = inhibition) at 1uM” value: 8.21% for the first, -11.8% for the second.

Going from `CCOC(=O)C1CCN(C(=O)COC(=O)COc2ccc(Cl)cc2)CC1` to `CC1CCCC(C)N1C(=O)COc1ccc(C(=O)N/N=C/c2ccc(C(=O)O)cc2)cc1` (stereo not drawn), the “hERG current change (%, negative = inhibition) at 1uM” value falls from 14.9% to 9.6%.

Compared with `COC(=O)[C@H](CCSC)NC(=O)Nc1cc(C)ccc1C`, `CCOC(=O)CC(=O)Nc1c(C)cc(C)cc1C` is lower in “hERG current change (%, negative = inhibition) at 1uM” value: 11.7% for the first, -2.24% for the second.

Compared with `CCC1CCc2sc(C(=O)NNC(=O)c3ccncc3)cc2C1` (stereo not drawn), `Cc1ccc(C)c(N(CC(=O)NC2CCCCC2)C(=O)c2csnn2)c1` is higher in “hERG current change (%, negative = inhibition) at 1uM” value: -9.41% for the first, 16.5% for the second.

First: CCC(C)C(NC(=O)C1CCC(C)CC1)C(=O)NCCc1ccc(S(N)(=O)=O)cc1 (stereo not drawn)
Second: COc1ccc(CCNC(=O)C(=O)NCC2OCCN2S(=O)(=O)c2ccc(Br)cc2)cc1 (stereo not drawn)
The “hERG current change (%, negative = inhibition) at 1uM” value of the first is higher: 11.6% for the first, -4.81% for the second.

Going from `CCCCNC(=O)O/N=C(\N)CS(=O)(=O)C(C)(C)C` to `CCOC(=O)C1(Cc2ccccc2)CCCN(S(=O)(=O)N(C)C)C1` (stereo not drawn), the “hERG current change (%, negative = inhibition) at 1uM” value rises from 4.15% to 6.63%.

Compared with `COc1ccc(CNC(=O)/C=C/c2cc3c(cc2Br)OCO3)cc1`, `COc1ccc(CN2CCNC(=O)C2CC(=O)NCc2ccc(C)s2)c(OC)c1` (stereo not drawn) is lower in “hERG current change (%, negative = inhibition) at 1uM” value: 9.24% for the first, 4.84% for the second.

Compared with `CCc1cc2c(C)cc(C)cc2nc1SCC(=O)Nc1cc(C)on1`, `CCn1c(SCC(=O)Nc2nonc2C)nnc1-c1ccco1` is lower in “hERG current change (%, negative = inhibition) at 1uM” value: 6.67% for the first, 3.45% for the second.

Going from `O=C(Nc1nc(-c2ccc3c(c2)Cc2ccccc2-3)cs1)c1ccccc1` to `O=C(CC(CC(=O)c1ccccc1)c1ccccc1)c1ccccc1`, the “hERG current change (%, negative = inhibition) at 1uM” value falls from 14.1% to 12%.

Going from `CCCOc1ccc(-c2nc(-c3ccc([N+](=O)[O-])cc3)cs2)cc1` to `COc1ccccc1-n1cc(-c2ccc(Cl)cc2)[nH]c1=O`, the “hERG current change (%, negative = inhibition) at 1uM” value falls from 17.4% to 7.06%.

Going from `O=C(CSc1ncnc2c1nnn2Cc1ccc(F)cc1)NCC1CCCO1` (stereo not drawn) to `Fc1ccc(-c2n[nH]c(=S)n2CC2CCCO2)cc1` (stereo not drawn), the “hERG current change (%, negative = inhibition) at 1uM” value rises from -5.85% to 12.2%.

Going from `Cc1[nH]c2ccccc2c1C(c1ccccn1)N1CCC(C)CC1` (stereo not drawn) to `CC1CCN(c2ccc(NC(=O)c3ccc(Br)o3)cc2)CC1`, the “hERG current change (%, negative = inhibition) at 1uM” value rises from -7.79% to 2.79%.

First: COc1ccc2[nH]c3c(Cl)ncnc3c2c1
Second: COc1ccc(NC(=O)CCCn2c(=S)[nH]c3ccccc3c2=O)cc1
The “hERG current change (%, negative = inhibition) at 1uM” value of the first is higher: 13% for the first, 10.7% for the second.

Compared with `COc1ccc(OCC(=O)Nc2nc3c(s2)CCCC3)cc1`, `COc1ccc(C(O)C(C)NC(C)C(O)c2ccc(OC)cc2)cc1` (stereo not drawn) is higher in “hERG current change (%, negative = inhibition) at 1uM” value: 8.14% for the first, 8.68% for the second.

Compared with `O=C(Oc1cc(Cl)ccc1Cl)c1ccc(N2CCOCC2)c([N+](=O)[O-])c1`, `O=C(O)c1nn(CCOc2cccc(Cl)c2)c(=O)c2ccccc12` is lower in “hERG current change (%, negative = inhibition) at 1uM” value: 6.97% for the first, 3.68% for the second.

First: CCOc1cc(/C=N/NC(=O)COc2ccccc2C)ccc1OC(=O)c1cccs1
Second: CCOC(=O)C1=C(N)Oc2cc(C)n(CCc3ccc(OC)c(OC)c3)c(=O)c2C1c1cccnc1 (stereo not drawn)
The “hERG current change (%, negative = inhibition) at 1uM” value of the first is higher: 3.1% for the first, -3.42% for the second.

First: CC#CC(=O)N1CCC(CO)(CCc2ccccc2)CC1
Second: NC(=O)COc1ncn(-c2ccccc2)n1
The “hERG current change (%, negative = inhibition) at 1uM” value of the first is lower: 1.33% for the first, 8.26% for the second.

Compared with `CCn1c(SCc2nc3ccccc3[nH]2)nnc1-c1cccnc1`, `Cn1ncc2nnn(-c3ccccc3)c(=O)c21` is lower in “hERG current change (%, negative = inhibition) at 1uM” value: 9.55% for the first, -0.008% for the second.

First: COc1cccc(OC)c1Oc1ccc(C(F)(F)F)cn1
Second: O=c1ccc(C(F)(F)F)cn1Cc1cc(=O)n2cc(Br)ccc2n1
The “hERG current change (%, negative = inhibition) at 1uM” value of the first is lower: 7.58% for the first, 13.7% for the second.

Compared with `CCC1CCCCN1S(=O)(=O)c1ccc(NC(=O)C2CCN(C(=O)c3ccco3)CC2)cc1` (stereo not drawn), `Cc1ccc(S(=O)(=O)N2CCCC2CNC(=O)C(=O)NC2CCCC2)cc1` (stereo not drawn) is lower in “hERG current change (%, negative = inhibition) at 1uM” value: 16.4% for the first, -3.13% for the second.

Compared with `CCOC(=O)c1c(N)sc(C(C)=O)c1C`, `COc1ccc(/C=N/NC(=O)c2snnc2C)c(OC)c1OC` is lower in “hERG current change (%, negative = inhibition) at 1uM” value: 9.14% for the first, 8.23% for the second.

Compared with `CC(C)NC(=O)CSc1nc2ccccc2c(=O)n1CCCOC(C)C`, `O=C(CN1CCCCC1)Nc1c2c(nc3ccccc13)N(c1ccccc1)CC2.O=C(O)C(=O)O` is lower in “hERG current change (%, negative = inhibition) at 1uM” value: 12.4% for the first, 11.2% for the second.

Going from `N#Cc1cc([N+](=O)[O-])cnc1NCC(O)CO` (stereo not drawn) to `CCCc1[nH]nc2c1C(c1ccc(O)c(OC)c1)C(C#N)=C(N)O2` (stereo not drawn), the “hERG current change (%, negative = inhibition) at 1uM” value rises from -1.12% to 1.92%.

Compared with `O=C(Nc1ccccc1)NC1CCN(Cc2nnnn2C2CCCCC2)CC1`, `CCOC(=O)C1CCCN(C(=S)NC2CCCC2)C1` (stereo not drawn) is higher in “hERG current change (%, negative = inhibition) at 1uM” value: -19.1% for the first, -4.23% for the second.

Going from `C/C(N)=C(/C#N)C(=O)CSc1nnc(SCc2ccc(Cl)cc2)s1` to `CC(=O)Nc1ccc(NC(=O)CSc2nnc(NC(=O)Cc3ccc(F)cc3)s2)cc1`, the “hERG current change (%, negative = inhibition) at 1uM” value rises from 3.16% to 16.4%.

Going from `CSc1nc2cc(F)c(F)cc2n1C` to `O=C(CCN1CCCCCC1)Nc1ccc(F)c(F)c1`, the “hERG current change (%, negative = inhibition) at 1uM” value falls from 1.22% to -3.87%.

First: Cc1ccc(N2CC(NS(=O)(=O)c3cccs3)CC2=O)cc1 (stereo not drawn)
Second: CCOc1ccc(-n2cnnn2)cc1S(=O)(=O)NC1CC1
The “hERG current change (%, negative = inhibition) at 1uM” value of the first is higher: 17.7% for the first, 1.61% for the second.

Going from `CC1CCc2c(sc(NC(=O)Cn3nc(C(F)(F)F)c4c3CCCCC4)c2C#N)C1` (stereo not drawn) to `O=C(CN1C(=O)c2ccccc2C1=O)Nc1sc2c(c1C(=O)NCC1CCCO1)CCC2` (stereo not drawn), the “hERG current change (%, negative = inhibition) at 1uM” value falls from 15.2% to -1.17%.

Compared with `S=c1[nH]nc(-c2ccccn2)n1/N=C/c1c(Cl)cccc1Cl`, `Cc1nn(Cc2ccccc2)c2c1C(c1ccc(Cl)cc1)C(C#N)=C(N)O2` (stereo not drawn) is lower in “hERG current change (%, negative = inhibition) at 1uM” value: 15.8% for the first, 10.8% for the second.

First: CCOc1cc(CN2CCN(c3ncccn3)CC2)ccc1OC
Second: O=C1c2cccc3cccc(c23)C(=O)N1CCN1CCN(CC(O)COc2ccc3ccccc3c2)CC1 (stereo not drawn)
The “hERG current change (%, negative = inhibition) at 1uM” value of the first is lower: 8.3% for the first, 11.8% for the second.

First: CC(=O)Nc1ccc(S(=O)(=O)N2CCN(C34CC5CC(CC(C5)C3)C4)CC2)cc1
Second: O=C(Nc1cccc(NC(=O)N2CCN(c3ccccc3)CC2)c1)N1CCN(c2ccccc2)CC1
The “hERG current change (%, negative = inhibition) at 1uM” value of the first is higher: 3.31% for the first, -1.69% for the second.

Compared with `Cl.OC(COCC1COc2ccccc2O1)CN1CCCCC1` (stereo not drawn), `CCCC(C(=O)O)n1c(O)c(C=C2N=c3ccccc3=N2)sc1=S` (stereo not drawn) is higher in “hERG current change (%, negative = inhibition) at 1uM” value: -10.8% for the first, 6.07% for the second.

Compared with `COc1ccc(COc2cc(-c3cccc(OC)c3)nc3ccc(NC(=O)c4ccc(N(C)C)cc4)cc23)cc1`, `COc1cc(C(=O)C(=O)c2cc(OC)c(O)c(OC)c2)cc(OC)c1O` is lower in “hERG current change (%, negative = inhibition) at 1uM” value: 13.5% for the first, -1.3% for the second.

First: CC(=NCCCO)c1c(O)[nH]c(=O)[nH]c1=O
Second: O=C(CN1C(=O)NC(Cc2ccccc2)C1=O)Nc1ccc(F)c(F)c1F (stereo not drawn)
The “hERG current change (%, negative = inhibition) at 1uM” value of the first is lower: 10% for the first, 11.2% for the second.

Compared with `Cc1sc2ncn3c(C)nnc3c2c1C`, `O=C(NC1CCS(=O)(=O)C1)C1CCCC1` (stereo not drawn) is higher in “hERG current change (%, negative = inhibition) at 1uM” value: 4.43% for the first, 4.62% for the second.
